Measured values from publication PMC2924460 (Arteriosclerosis, thrombosis, and vascular biology, 2010).

Molecular target: the molecule itself
Assay: FRET or BRET

B1: prostacyclin receptor variant IP^R212C, fused to renilla luciferase (IP^R212CrLuc) or to yellow fluorescent protein (IP^R212CYFP) (receptor)
chain: not shown
**Q.** With B1 as the protein, how does the BRET50 read?
**A.** Its BRET50 is 1.13 YFP fold over basal.
